Test results published in paper PMC8249616, “Structural basis of the activation of c-MET receptor” (Nature Communications, 2021).

What follows are binders tested against T1, c-MET927-TSI3-His (c-MET 1-927 with Tsi3 and His6 tags kept) (human, UniProt P08581 25-927) (assay: pull-down; 5 ug c-MET927-TSI3-His immobilised on TSE resin as bait; 5 ug HGF wild type or mutant as prey in 50 ul PBS with 10 uM Tinzaparin and 2 mM CaCl2, 1 h at 4 degrees; SDS-PAGE, band intensity by ImageJ). Details: both partners purified.
T1 construct: signal peptide in the construct; Bait of the pull-down, held on TSE resin by its Tsi3 tag; also called TSI tagged c-MET927; source: HEK293F infected with baculovirus (pEZT-BM), secreted, purified; not shown: Tsi3, C-terminal, kept; His6, C-terminal, kept
T1 sequence (P08581 25-927): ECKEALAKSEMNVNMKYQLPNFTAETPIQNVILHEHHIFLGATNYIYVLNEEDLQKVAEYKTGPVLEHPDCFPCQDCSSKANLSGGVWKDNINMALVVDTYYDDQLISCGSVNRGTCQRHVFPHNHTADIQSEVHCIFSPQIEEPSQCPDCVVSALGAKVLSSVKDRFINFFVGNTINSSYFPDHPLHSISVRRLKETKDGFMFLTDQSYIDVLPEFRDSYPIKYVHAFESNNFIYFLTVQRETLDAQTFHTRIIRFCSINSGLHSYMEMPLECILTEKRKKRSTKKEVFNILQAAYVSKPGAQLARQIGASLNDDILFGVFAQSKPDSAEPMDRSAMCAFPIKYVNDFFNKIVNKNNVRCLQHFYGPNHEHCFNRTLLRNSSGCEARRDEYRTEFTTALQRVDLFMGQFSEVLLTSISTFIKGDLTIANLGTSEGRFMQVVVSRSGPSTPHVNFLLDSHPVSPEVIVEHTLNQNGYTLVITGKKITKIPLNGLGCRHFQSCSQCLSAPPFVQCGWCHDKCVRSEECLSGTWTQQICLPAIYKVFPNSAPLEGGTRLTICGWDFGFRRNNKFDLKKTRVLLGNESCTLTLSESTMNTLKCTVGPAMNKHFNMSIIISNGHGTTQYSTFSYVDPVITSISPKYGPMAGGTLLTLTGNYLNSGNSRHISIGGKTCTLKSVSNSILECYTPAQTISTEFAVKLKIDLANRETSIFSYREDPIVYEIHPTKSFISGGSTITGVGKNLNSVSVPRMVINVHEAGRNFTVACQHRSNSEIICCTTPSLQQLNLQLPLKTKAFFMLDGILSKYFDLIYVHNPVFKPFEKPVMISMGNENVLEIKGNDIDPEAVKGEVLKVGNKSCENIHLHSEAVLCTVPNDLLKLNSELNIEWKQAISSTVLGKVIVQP

Sequence of HGF R242E/K244E/R249E (P14210 32-728 R242E/K244E/R249E): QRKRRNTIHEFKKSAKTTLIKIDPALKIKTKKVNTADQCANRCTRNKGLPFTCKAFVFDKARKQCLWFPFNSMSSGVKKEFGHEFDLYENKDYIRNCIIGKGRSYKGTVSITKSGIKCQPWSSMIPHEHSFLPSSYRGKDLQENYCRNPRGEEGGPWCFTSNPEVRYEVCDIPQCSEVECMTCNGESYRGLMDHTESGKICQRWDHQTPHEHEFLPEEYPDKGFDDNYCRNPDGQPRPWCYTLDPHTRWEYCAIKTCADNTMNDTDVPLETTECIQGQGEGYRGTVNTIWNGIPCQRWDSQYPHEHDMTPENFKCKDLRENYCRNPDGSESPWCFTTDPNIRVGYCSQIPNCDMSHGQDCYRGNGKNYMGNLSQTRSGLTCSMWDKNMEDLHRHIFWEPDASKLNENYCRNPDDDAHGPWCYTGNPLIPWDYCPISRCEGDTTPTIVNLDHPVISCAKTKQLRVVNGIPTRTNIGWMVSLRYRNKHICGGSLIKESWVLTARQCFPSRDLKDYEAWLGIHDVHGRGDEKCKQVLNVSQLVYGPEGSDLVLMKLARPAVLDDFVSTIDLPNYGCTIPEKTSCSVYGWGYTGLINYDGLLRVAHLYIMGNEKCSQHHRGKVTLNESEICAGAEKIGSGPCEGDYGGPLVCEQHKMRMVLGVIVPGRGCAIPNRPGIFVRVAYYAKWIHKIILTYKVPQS
Sequence of HGF W321R/E361R/Y376A (P14210 32-728 W321R/E361R/Y376A): as the sequence (P14210 32-728 R242E/K244E/R249E) above, with E211R, E213K, E218R, W290R, E330R, Y345A counted along it

| Binder | binding result |
| --- | --- |
| HGF E159R (ligand, signal peptide in the construct; full-length human HGF with a point mutation in the K1 domain; source: HEK293F, secreted, purified) not shown | binds |
| HGF R242E/K244E/R249E (ligand, signal peptide in the construct; full-length human HGF with a triple mutation in the K2 domain; also called HGF R242E/K244E/R249E triple mutant; source: HEK293F, secreted, purified) not shown | binds |
| HGF W321R/E361R/Y376A (ligand, signal peptide in the construct; full-length human HGF with a triple mutation in the K3 domain; also called HGF W321R/E361R/Y376A triple mutant; source: HEK293F, secreted, purified) not shown | binds |
